Experimental data: PubChem BioAssay AID652104 (National Center for Advancing Translational Sciences (NCATS), 2013)
Screen size: about 410,000 compounds; about 7,200 (1.8%) were called active. This list was built around the results that the source calls inconclusive (neither active nor inactive); the mix of calls is not that of the screen. Calls come from the whole dose curve; as a rule, active = well fitted activation curve with a large enough effect; inconclusive = small, poorly fitted or top-dose-only effect, or another doubt; inactive = no such curve, though single readings can be large or run the other way. No potency is given beside an inconclusive call; the fits are too rough.

assay: qHTS of TDP-43 Inhibitors; settings: TDP-43 expressing yeast growth rescue, BacTiter-Glo, 24 h; growth rescue (activation): at 46.1 µM (top of the series) unless noted; note: nearly all actives have a fitted effect of over 50% in size; for growth rescue (activation): % of control where 0% means no effect
Summary of the method: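 Yeast expressing TDP-43 (pregrown in raffinose, seeded at OD600=0.02 in galactose medium) exposed to compounds 24 hr at 30 deg C. Growth read by BacTiter-Glo luminescence; rescue of toxicity appears as increased signal.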
Potency is the fitted concentration of half-maximal effect; tags give direction and shape of the fitted curve.

| Compound | Potency | growth rescue (activation) |
| --- | --- | --- |
| COc1cc(NS(=O)(=O)c2cc(NC(C)=O)ccc2OC)c(OC)cc1NC(=O)c1ccccc1 | inconclusive [activator, partial curve] |  |
| N#CC(=C1C=CC(=NO)C(Cl)=C1)c1ccc(Cl)cc1 | inconclusive [activator, full curve] |  |
| CCNS(=O)(=O)c1ccc(C(=O)OCC(=O)N2CCCc3ccccc32)cc1 |  | inactive: 9.02% |
| COc1ccc(C=NOCC(=O)OCC(=O)Nc2ccc(OC)cc2)cc1 | inconclusive [activator, partial curve] |  |
| COc1ccccc1CNC(=O)CCCCn1c(=O)c2ccccc2n(CC(=O)Nc2cc(Cl)ccc2C)c1=O | inconclusive [activator, partial curve, poor fit] |  |
| CCN(CC)S(=O)(=O)c1ccc(C(=O)NCc2n[nH]c(=S)n2-c2ccc(Cl)c(Cl)c2)cc1 | inconclusive [activator, single point] |  |
| CC(Nc1c([N+](=O)[O-])c(=O)oc2ccccc12)c1ccccc1 (centres undefined) | inconclusive [activator, partial curve] |  |
| O=C(Nc1ccccc1Br)C1CC(=O)N(c2ccc3c4c(cccc24)CC3)C1 (centres undefined) | inconclusive [activator, single point] |  |
| C=CCNC(=O)c1ccc(-c2nc(-c3ccccc3)cs2)cc1 | inconclusive [activator, full curve] |  |
| Cn1c(COc2ccc(Br)cc2)nnc1SC1CCc2ccccc2C1=O (centres undefined) | inconclusive [activator, partial curve] |  |
| O=C1C=C(Nc2ccccc2)C(=O)c2ccccc21 |  | inactive: 13.1% |
| CCn1c(=O)cc(SCC(=O)NCCc2ccc(OC)cc2OC)c2ccccc21 |  | inactive: 15.5% |
| O=C(NCc1ccccc1Br)c1cccs1 | inconclusive [activator, single point] |  |
| Cc1cc2ncn(/N=C/c3ccc([N+](=O)[O-])o3)c2cc1C | active: 8.91 µM |  |
| O=C(Nc1ccccc1F)c1ccc(Cn2cc(Cl)cn2)cc1 |  | inactive: -8.1% |
| COc1ccccc1Cc1c(-c2ccccc2)nc2c(C)cc(Br)cn12 | inconclusive [activator, single point] |  |
| CC(C)(C)c1csc(NC(=O)c2cccnc2Cl)n1 | inconclusive [activator, single point] |  |
| COc1ccc(CCC(=O)NCCc2ccc(Cl)cc2)cc1 | inconclusive [activator, partial curve] |  |
| CCOC(=O)Nc1ccc2c(c1)C(=NNC(=S)NC)c1ccccc1-2 | active: 25.1 µM |  |
| CSc1ccccc1NC(=O)c1cc(C2CC2)on1 | inconclusive [activator, partial curve] |  |
| CCOc1ccc(NC(=O)Cn2c(=O)n(CCC(=O)NCCc3ccccc3)c(=O)c3ccccc32)cc1 |  | inactive: 7.16% |
| COc1ccc(OC)c(CCNC(=O)CCc2cn(C)c3ccccc23)c1 |  | inactive: 3.01% |

| Compound | Potency | growth rescue (activation) |
| --- | --- | --- |
| Cc1cccc(C(=O)Nc2ccccc2SCc2cc(=O)c3cccc(C)c3[nH]2)c1 | inconclusive [activator, single point] |  |
| CC(=O)Cc1nsc(NC(=O)c2ccc(F)cc2)n1 | inconclusive [activator, single point] |  |
| Oc1ccc(Nc2nc(-c3ccccc3)nc3ccccc23)cc1 |  | inactive: 0% |
| Brc1ccc2nc(-c3ccco3)c(Cc3ccsc3)n2c1 | active: 3.16 µM |  |
| O=S(=O)(NCc1ccc(Cl)cc1)c1cccc2cccnc12 | inconclusive [activator, partial curve] |  |
| COC(=O)c1cccc(NC(=S)Nc2ccccc2Cl)c1 | inconclusive [activator, partial curve] |  |
| CC(=O)N1CC(C)Sc2ccc(S(=O)(=O)NC3CCCCC3C)cc21 (centres undefined) | inconclusive [activator, single point] |  |
| COc1ccc(/C=C/C(=O)NCCn2c(C)cc3ccccc32)cc1OC | inconclusive [activator, partial curve] |  |
| Fc1ccc(COc2ccc(/C=N/n3cnnc3)cc2)cc1 | inconclusive [activator, single point] |  |
| O=C(c1ccco1)N1CCN(c2ncnc3scc(-c4cccs4)c23)CC1 | inconclusive [activator, single point] |  |
| O=C(c1ccccc1)c1cccn1CC(=O)N1CCc2ccccc2C1 | inconclusive [activator, partial curve] |  |
| N#Cc1ccccc1OCC(=O)Nc1ccc2c(c1)OCCO2 | inconclusive [activator, single point] |  |
| COC(=O)COc1ccc(S(=O)(=O)N2CCc3ccccc3C2)cc1C | inconclusive [activator, single point] |  |
| Cc1ccc(NC(=O)CCCc2ccccc2)c([N+](=O)[O-])c1 | inconclusive [activator, partial curve] |  |
| COc1cccc(CNC(=O)CCCN2C(=O)C(c3ccccc3)Oc3cccnc32)c1OC (centres undefined) |  | inactive: -2.74% |
| CC1(C(=O)Nc2nc3ccccc3s2)CC1(Br)Br (centres undefined) | active: 10 µM |  |
| Cc1nc(-c2ccc(C(=O)O)cc2)cs1 | inconclusive [activator, single point] |  |
| CCCn1nc(NC(=O)c2cccs2)c2cc3cc(C)ccc3nc21 | inconclusive [activator, single point] |  |
| COc1cc(OC)c(C2C=CC(=O)CC2)c(OC)c1 (centres undefined) | inconclusive [activator, partial curve] |  |
| Cc1cccc(-c2noc(CN(C)C(=O)COc3ccccc3)n2)c1 | inconclusive [activator, single point] |  |
| COc1ccc(N2C(=S)N(C(=O)c3ccccc3)C(=Nc3ccccc3)C2=Nc2ccccc2)cc1 | inconclusive [activator, partial curve] |  |
| CS(=O)(=O)c1nc(-c2ccccc2)cc(C(F)(F)F)n1 | inconclusive [activator, single point] |  |
